In patent US11178870B2 (priority 2017, dated 2021):

How the values were obtained:
Magnaporthe grisea = assay type: in vivo; conditions: Table 7, Test A
Phytophthora infestans = assay type: in vivo; conditions: Table 7, Test F
[1] = system: Colletotrichum orbiculare; conditions: 250 ppm sprayed (2.5 ml/pot) before inoculation; assessed 6 to 10 days after inoculation

| SMILES | control value, Test A (blast on rice) (Magnaporthe grisea) | control value, Test F (late blight on tomato) (Phytophthora infestans) | control value, Test H (anthracnose on cucumber) [1] |
| --- | --- | --- | --- |
| CCn1c(-c2c(F)cccc2F)c(-n2cc(F)cn2)cc(Br)c1=O [Compound 320] | H (H shows the control value more than 50%) | – | – |
| CCn1c(-c2c(F)cc(OC)c(I)c2F)c(-n2cc(Cl)cn2)cc(I)c1=O [Compound 253] | L (L shows the control value of 50% or less) | L (L shows the control value of 50% or less) | L (L shows the control value of 50% or less) |
| CCn1c(-c2ccccc2F)c(-n2cc(C)cn2)cc(Br)c1=O [Compound 260] | L (L shows the control value of 50% or less) | L (L shows the control value of 50% or less) | L (L shows the control value of 50% or less) |
| O=c1c(Br)cc(-n2cc(Cl)cn2)c(-c2ccccc2Br)n1CC(F)F [Compound 291] | L (L shows the control value of 50% or less) | L (L shows the control value of 50% or less) | L (L shows the control value of 50% or less) |
| CCOc1cc(F)c(-c2c(-n3cc(Cl)cn3)cc(Cl)c(=O)n2CC)c(F)c1 [Compound 200] | H (H shows the control value more than 50%) | L (L shows the control value of 50% or less) | H (H shows the control value more than 50%) |
| CCn1c(-c2c(F)cc(OCOC)cc2F)c(-n2cc(Cl)cn2)cc(Cl)c1=O [Compound 203] | H (H shows the control value more than 50%) | L (L shows the control value of 50% or less) | H (H shows the control value more than 50%) |
| O=c1c(Br)cc(-n2cc(F)cn2)c(-c2ccc(F)cc2F)n1CC(F)F [Compound 286] | H (H shows the control value more than 50%) | L (L shows the control value of 50% or less) | H (H shows the control value more than 50%) |
| C#Cc1cc(-n2cc(Cl)cn2)c(-c2c(F)cc(OC)cc2F)n(CC)c1=O [Compound 224] | L (L shows the control value of 50% or less) | L (L shows the control value of 50% or less) | H (H shows the control value more than 50%) |
| CCn1c(-c2ccccc2F)c(-n2cc(Cl)cn2)cc(Br)c1=O [Compound 221] | L (L shows the control value of 50% or less) | L (L shows the control value of 50% or less) | L (L shows the control value of 50% or less) |
| CCn1c(-c2ccccc2C)c(-n2ncc(C)c2Cl)cc(Br)c1=O [Compound 245] | H (H shows the control value more than 50%) | L (L shows the control value of 50% or less) | H (H shows the control value more than 50%) |
| CCn1c(-c2c(F)cc(F)cc2F)c(-n2cnnn2)ccc1=O [Compound 281] | L (L shows the control value of 50% or less) | L (L shows the control value of 50% or less) | L (L shows the control value of 50% or less) |
| CCn1c(-c2ccccc2[N+](=O)[O-])c(-n2cc(Cl)cn2)cc(Cl)c1=O [Compound 258] | L (L shows the control value of 50% or less) | L (L shows the control value of 50% or less) | L (L shows the control value of 50% or less) |
| CCn1c(-c2ccccc2Cl)c(-n2cnc(Cl)c2Cl)cc(Br)c1=O [Compound 210] | L (L shows the control value of 50% or less) | L (L shows the control value of 50% or less) | H (H shows the control value more than 50%) |
| CCOc1cc(F)c(-c2c(-n3cc(F)cn3)ccc(=O)n2CC)c(F)c1 [Compound 311] | H (H shows the control value more than 50%) | L (L shows the control value of 50% or less) | H (H shows the control value more than 50%) |
